Source: PubChem BioAssay AID493208 (National Center for Advancing Translational Sciences (NCATS), 2011)
About 340 (0.77%) of roughly 44,000 compounds were called active. Roughly 5% stayed inconclusive and do not appear here. Calls come from the whole dose curve; as a rule, active = well fitted inhibition curve with a large enough effect; inconclusive = small, poorly fitted or top-dose-only effect; inactive = flat fitted curve, though single readings scatter. The list shows a part of the results.

Assay: Acumen qHTS Assay for Inhibitors of the mTORC1 Signaling Pathway in MEF (Tsc2-/-, p53-/-) Cells: Sytravon;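 note: plate controls were DMSO for no effect and rapamycin for full effect; nearly all actives have a fitted effect of over 50% in size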
Conditions: phospho-rpS6 immunofluorescence/PI, 24 h; series mostly up to 38.3 µM; activity change, negative = inhibition: at the top concentration
Outline: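 Plate MEFs (Tsc2-/-, p53-/-, empty vector) in DMEM/10% FBS; after 24 h add compound, incubate 24 h at 37 degree Celsius; fix in PFA/TX-100, block, stain phospho-rpS6 and 10 uM PI; scan at 488 nm; report % positive cells.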

SMILES	activity change, negative = inhibition
Cc1cccc(NC(=O)Cn2nc3c4ccccc4n(Cc4ccccc4)cc-3c2=O)c1	inactive: -2.93%
O=C(Nc1cccc(C(F)(F)F)c1)N1CC2CCCN2c2ccccc21 (stereo unspecified)	inactive: 1.5%
COc1ccc2cc(-c3nnc(Nc4ccccc4)s3)c(=O)oc2c1	inactive: -0.105%
Cc1ccccc1C(=O)OCc1cc(=O)n2nc(C(C)C)sc2n1	inactive: -10.3%
COc1cc(OC)c(N(C)C(=O)c2cn(C3CCCC3)c(=O)c3c2c2ccccc2n3C)cc1Cl	inactive: -5.56%
COc1ccc(-n2nc(C(=O)O)c(=O)n(C)c2=O)cc1	inactive: -6.12%
Cc1ccc(N2CCN(C(=O)c3cnn(-c4ccc(F)cc4F)c3C3CCN(C(=O)OC(C)(C)C)CC3)CC2)c(C)c1	inactive: 3.64%
CCN1CCN(C(c2ccc(C)cc2)c2c(O)cc(C)n(Cc3ccco3)c2=O)CC1 (stereo unspecified)	inactive: -1.45%
CN(Cc1ccccc1)S(=O)(=O)c1ccc2[nH]c3c(c2c1)CCCCC3	inactive: -4.19%
CC1=C(C(=O)Nc2ccc(C)cc2C)C(c2ccc(C(=O)O)cc2)n2nc(SCc3ccccc3)nc2N1 (stereo unspecified)	inactive: -1.86%
Cc1ccc2c(c1)c1c(c(=O)n(-c3ccccc3)c(=O)n1CC(=O)c1ccc(F)cc1)n2C	inactive: -0.791%
Cc1ccc(NC(=O)c2ccc(CN3CC(=O)N4CCCCC4C3=O)cc2)cc1 (stereo unspecified)	inactive: -20.5%
CCc1cccc(NC(=O)Cn2c(=O)n(-c3cccc(Cl)c3)c(=O)c3c2c2cc(C)ccc2n3C)c1	inactive: 9.52%
COc1ccc(OC)c(CNC(=O)c2cnc3c(C)cccn3c2=O)c1	inactive: 0.0187%
CCc1nn2c(=O)cc(COC(=O)c3ccc(NC(=O)COc4ccc(C)cc4)cc3)nc2s1	inactive: 14.9%
Cn1c(SCC(=O)N2CCCc3ccccc32)ncc(C(=O)Nc2ccccc2)c1=O	inactive: -8.65%
CSc1ccc(Cn2nnc(C(=O)Nc3ccc(C)cc3Cl)c2N)cc1	inactive: -2.48%
Cc1ccc(C(=O)COC(=O)C(Cc2c[nH]c3ccccc23)NC(=O)c2ccc(C(C)(C)C)cc2)cc1 (stereo unspecified)	inactive: -4.72%
CCN(c1ccccc1)S(=O)(=O)c1ccc(-c2cc(C)no2)s1	inactive: -7.78%
Cc1cc(C)cc(NC(=O)CSc2nc(=O)n(Cc3ccccn3)c3c2CCC3)c1	inactive: -5.61%
CCOC(=O)C(C)Sc1nc(-c2ccccc2Cl)cc(-c2ccccc2)c1C#N (stereo unspecified)	inactive: 1.15%

SMILES	activity change, negative = inhibition
Cc1ccccc1C(=O)Nc1cccc(C(=O)OCc2cc(=O)n3ccsc3n2)c1	inactive: 1.23%
Cc1ccc2[nH]c(=O)c(CN(C(=O)c3cccc(Cl)c3)C(C)(C)C)cc2c1	inactive: -5.44%
COc1ccc(-n2cc(-c3ccccc3)c3c(NC4CCCC4)ncnc32)cc1	inactive: 11%
Cc1cccc(Oc2nc3c(c(=O)n(C)c(=O)n3C)n2Cc2ccccc2)c1C	inactive: 4.17%
Cc1cccc(C)c1OCc1cc(=O)n2c3c(sc2n1)CCCC3	inactive: -1.02%
Cc1cc(C)cc(NC(=O)Nc2nnc(N(C)C3CCCCC3)s2)c1	inactive: -9.45%
COc1ccccc1-c1noc(CCCC(=O)NCc2ccco2)n1	inactive: 3.1%
COc1ccc(C(=O)Nc2nnc(C(C)C)s2)cc1OC	inactive: -6.14%
COc1ccc2sc(N(Cc3cccnc3)C(=O)COc3ccccc3)nc2c1	inactive: -0.896%
COc1cc(NC(=O)Cn2c(=O)n(CC3CCCO3)c(=O)c3ccccc32)cc(OC)c1 (stereo unspecified)	inactive: 0.0393%
CCOc1ccc(CCNc2nc3ccccc3n3c(C)nnc23)cc1OCC	inactive: -7.67%
CCCCc1nn2c(=O)cc(COC(=O)c3ccc(NC(=O)C(CC)CC)cc3)nc2s1	inactive: 1.96%
Cc1ccc(NC(=O)c2cc3nc(-c4ccccc4)cc(-c4ccccc4)n3n2)cc1	inactive: 0.791%
Cc1ccc(CNC(=O)c2cnn(-c3cccc(C)c3)c2C2CCN(C(=O)OC(C)(C)C)CC2)cc1	inactive: -17.6%
COc1ccc(CCNC(=O)c2ccc(Cn3c(=O)c4ccccc4n(Cc4cccc(C)c4)c3=O)cc2)cc1OC	inactive: -0.217%
CCC1CCCCN1S(=O)(=O)c1cc(C(=O)Nc2ccc(C)c(F)c2)ccc1F (stereo unspecified)	inactive: -19%
CCOCCCn1c(=N)c(C(=O)NC2CCCC2)cc2c(=O)n3cc(C)ccc3nc21	inactive: 5.77%
CCn1cnc2c(=O)oc3ccc(S(=O)(=O)Nc4ccc(OC)cc4)cc3c21	inactive: 17.5%
COc1ccccc1Cc1nc2ccccc2nc1SCC(=O)Nc1cc(Cl)ccc1OC	inactive: 0.281%
CCc1ccccc1NC(=O)c1nnn(Cc2ccc(Cl)cc2)c1N	inactive: -12.6%
CCOC(=O)c1c(S(=O)(=O)N2CCC(C(=O)Nc3ccc(C)cc3C)CC2)c(C)n(C)c1C	inactive: -0.475%

SMILES	activity change, negative = inhibition
Cc1cc(C)cc(NC(=O)c2cnc3sc(N4CCCC4)nn3c2=O)c1	inactive: 0.435%
COCCNC(=O)CSc1nc(-c2ccccc2)[nH]c1-c1ccc(OC)cc1	inactive: -7.72%
Cc1cc(CN2CCN(c3cccc(C)c3C)CC2)cs1	inactive: 0%
CCOc1ccc(NC(=O)C2CCCN(S(=O)(=O)c3c(C)noc3/C=C/N(C)C)C2)cc1 (stereo unspecified)	inactive: -25.4%
CCOC(=O)C1=C(CN2CCN(c3ccc(OC)cc3)CC2)NC(=O)NC1c1ccc(Cl)cc1 (stereo unspecified)	inactive: 7.11%
COc1cccc(-n2c(SCC(=O)Nc3nnc(C)s3)nc3c([nH]c4ccccc43)c2=O)c1	inactive: 0.519%
Fc1ccc2[nH]c(-c3cccs3)cc2c1	inactive: 3.02%
CC(C)Cn1c(=O)c2sccc2n2c(CCCC(=O)N3CCN(c4ccc(F)cc4)CC3)nnc12	inactive: -3.32%
O=C(Nc1cccc(C(F)(F)F)c1)c1cc2nc(-c3ccc4c(c3)OCO4)cc(C(F)(F)F)n2n1	inactive: -2.73%
Cc1ccc(Cn2cc(C(=O)c3ccc4c(c3)OCO4)c(=O)c3cc(C)ccc32)cc1	inactive: -7.74%
COc1ccc(C)cc1NC(=O)N1CC(C)Sc2ccccc21 (stereo unspecified)	inactive: -0.264%
Cc1ccc(-c2nc(CSc3nncn4c3cc3occc34)c(C)o2)cc1	inactive: -0.651%
NCCc1nc2cccnc2n1-c1ccccc1	inactive: 0%
Cc1ccc(C)c(NC(=O)Cn2c(=O)n(-c3ccc(CC(=O)NCC4CCCO4)cc3)c(=O)c3ccccc32)c1 (stereo unspecified)	inactive: -1.39%
Cc1ccc(OCC(=O)NCC2(N(C)C)CCCCC2)cc1C	inactive: -6.34%
CCCOc1ccc(C(=O)NCC2OCCc3ccccc32)cc1 (stereo unspecified)	inactive: -0.494%
Cc1ccc(NC(=O)c2c(C)nc3sc(C(=O)Nc4ccc(F)cc4)c(N)c3c2-c2ccc(C)o2)c(C)c1	inactive: -0.286%
CC1CN(C(=O)CCC(=O)Nc2cc(F)ccc2F)c2ccccc2S1 (stereo unspecified)	inactive: -5.02%
COc1ccc(C(=O)Nc2ccc3oc(-c4ccc(F)cc4Cl)nc3c2)cc1	inactive: -1.06%
